Paper PMC10668032
Some of the results follow. At the low end of the ranking the order means little.

Each sequence was assayed against SIX1-Q177R homeodomain (UniProt Q15475) (assay: universal protein binding microarray). Conditions: Universal all-10-mer PBM (8x60K, AMADID 030236), 300 nM GST-tagged protein, Alexa Fluor 488 anti-GST; buffer, salt, pH and temperature not stated; high values mean tight binding; most listed sequences are background and not binding sites; double strand, one strand shown.
For AATTCCGT, the binding signal was -0.0976 E-score. Work on ACCGTCCG yielded a binding signal of -0.0386 E-score. Work on GACATATC yielded a binding signal of -0.147 E-score. With AGCGTGGC the binding signal was -0.23 E-score. AGAGCGAC gave a binding signal of 0.0604 E-score. CCTCATGC was tested, and the binding signal was 0.0961 E-score. CACGCATA showed a binding signal of 0.271 E-score. GCGTTAAA gave a binding signal of -0.12 E-score. Sequence CGAAGGTC has a binding signal of -0.244 E-score. Work on AACTAGGT yielded a binding signal of 0.0539 E-score. For GTTAACGA, the binding signal was 0.0384 E-score. ACTAATCA showed a binding signal of 0.0482 E-score. In the case of AATGATAT, the binding signal is reported as -0.151 E-score. AGTGAGCC was tested, and the binding signal was 0.00303 E-score. Work on AAGAGGGA yielded a binding signal of -0.109 E-score. In the case of AGATCTAG, the binding signal is reported as -0.212 E-score. In the case of TATAAAGA, the binding signal is reported as -0.225 E-score. In the case of AGTCGATA, the binding signal is reported as -0.0922 E-score. GCTAGAGA was tested, and the binding signal was -0.276 E-score. Work on GGAGTAGA yielded a binding signal of 0.22 E-score. CCAACTCA gave a binding signal of 0.0184 E-score. With GCCAGGCA the binding signal was -0.143 E-score. GATACATA was tested, and the binding signal was 0.084 E-score. In the case of AACAGGCC, the binding signal is reported as -0.175 E-score. Work on CGGTAATA yielded a binding signal of -0.0398 E-score. GCAGAGTA gave a binding signal of 0.0174 E-score. With ACCATCTA the binding signal was 0.0926 E-score. TCAGAACA was tested, and the binding signal was 0.228 E-score. Sequence ACAAGTAC has a binding signal of 0.0232 E-score. In the case of ATAAGCTG, the binding signal is reported as -0.0626 E-score. In the case of ACAATCAC, the binding signal is reported as -0.129 E-score. For ACCAGCGT, the binding signal was 0.13 E-score. In the case of AAATGAAA, the binding signal is reported as -0.133 E-score. Sequence AGCCTGGC has a binding signal of -0.175 E-score. GCCCGCAA was tested, and the binding signal was 0.0243 E-score. For CAGCTCGG, the binding signal was 0.114 E-score. In the case of AGGTAAGA, the binding signal is reported as -0.0993 E-score. For AGCGATCG, the binding signal was -0.16 E-score. Sequence CTCTGTAA has a binding signal of -0.0782 E-score. CTCATCCA gave a binding signal of 0.0704 E-score. Work on CTGTACGA yielded a binding signal of -0.156 E-score. With CCTCTTAC the binding signal was -0.0926 E-score. AATATTAT was tested, and the binding signal was -0.0662 E-score. With AAGCTGTC the binding signal was -0.177 E-score. With CATCCGGG the binding signal was 0.156 E-score. AGACTGCT was tested, and the binding signal was -0.0959 E-score. GCGCTTCC showed a binding signal of -0.206 E-score. GCCAAGAA was tested, and the binding signal was -0.163 E-score. Work on TACAACCA yielded a binding signal of -0.0582 E-score. AACCTGCG gave a binding signal of -0.00114 E-score. For CTCGCCGC, the binding signal was 0.0626 E-score. GCCCCAGC showed a binding signal of -0.0349 E-score. Work on ACTAGCTA yielded a binding signal of -0.0861 E-score. With CCAGAACC the binding signal was -0.0998 E-score. Sequence ATAACCAT has a binding signal of -0.299 E-score. For CATTCAGA, the binding signal was -0.0783 E-score. Work on CCGGCGTC yielded a binding signal of 0.0885 E-score. GGCTGGCA gave a binding signal of -0.161 E-score. Work on GCCGTAAA yielded a binding signal of -0.127 E-score. CATATCCC was tested, and the binding signal was -0.0212 E-score. ACGTAAAG showed a binding signal of -0.0942 E-score. GGACTTTA gave a binding signal of -0.0833 E-score. With GGGCTTGA the binding signal was -0.083 E-score. AACGTAAG showed a binding signal of -0.171 E-score. With GTGTCCCA the binding signal was 0.442 E-score. AACGTAAA showed a binding signal of -0.0791 E-score. In the case of ATCTGAAC, the binding signal is reported as -0.0714 E-score. ACATATGT was tested, and the binding signal was -0.0457 E-score. In the case of GCCGAGGA, the binding signal is reported as 0.0534 E-score. CATTTCCG showed a binding signal of 0.047 E-score. With ACGCCGGC the binding signal was 0.0728 E-score. ACAAGTAG showed a binding signal of 0.1 E-score. Sequence GGTGCTTA has a binding signal of 0.234 E-score. ATAGGCGG showed a binding signal of 0.143 E-score. Sequence AATGTGCC has a binding signal of -0.106 E-score. CGTCGGCA was tested, and the binding signal was -0.108 E-score. ACTGCTTG showed a binding signal of -0.00639 E-score. GCGAAAAA was tested, and the binding signal was 0.0387 E-score. In the case of ACTGGTTG, the binding signal is reported as 0.0312 E-score. Sequence TCAGAAGA has a binding signal of -0.207 E-score. Sequence ACGTCGCA has a binding signal of -0.192 E-score. Work on ACCCTTAT yielded a binding signal of 0.0222 E-score. TCGCAAAA was tested, and the binding signal was -0.179 E-score. Work on ATCGTTCA yielded a binding signal of -0.115 E-score. CACTTACG gave a binding signal of 0.206 E-score. With CGCTGTAC the binding signal was -0.0173 E-score. In the case of ACTAATGG, the binding signal is reported as -0.113 E-score. GCGATCTA was tested, and the binding signal was -0.0946 E-score. For CAATTAGA, the binding signal was -0.0183 E-score. Work on GCTTGTGA yielded a binding signal of -0.117 E-score. With ACACCACA the binding signal was 0.485 E-score. ATACCTCA was tested, and the binding signal was 0.0988 E-score. AACCAAGG gave a binding signal of -0.132 E-score. Sequence ACGATCCA has a binding signal of -0.0648 E-score. GACGTGGC gave a binding signal of -0.189 E-score. CGGGAACA was tested, and the binding signal was 0.157 E-score. In the case of TAGCCACA, the binding signal is reported as -0.15 E-score. CGTGACCA showed a binding signal of -0.145 E-score. CACAAGTG was tested, and the binding signal was 0.143 E-score. Work on GGCCAATA yielded a binding signal of -0.156 E-score. Sequence GGGCCACA has a binding signal of -0.0947 E-score. CGCTCGGC was tested, and the binding signal was 0.00844 E-score. For CTGAGCTA, the binding signal was -0.106 E-score. Sequence CCAAGAAG has a binding signal of -0.0292 E-score. Sequence CACTACAC has a binding signal of 0.443 E-score. GGAGTCTA showed a binding signal of 0.0319 E-score. In the case of CTCGCGAC, the binding signal is reported as -0.0305 E-score. In the case of ACTTAATC, the binding signal is reported as -0.164 E-score. For ACTTAGCT, the binding signal was -0.0483 E-score. With GTCCATAA the binding signal was -0.0731 E-score. Sequence CGATCACA has a binding signal of -0.0285 E-score. Work on ACAAACAC yielded a binding signal of 0.379 E-score. Sequence AACGGCAA has a binding signal of -0.16 E-score. ACCCTATG showed a binding signal of 0.095 E-score. Work on CACTCATA yielded a binding signal of 0.195 E-score. CAAAACGC gave a binding signal of -0.0985 E-score. In the case of GCCTATAA, the binding signal is reported as 0.0766 E-score. ACTCCACC gave a binding signal of 0.275 E-score. With CATTTGCC the binding signal was 0.00044 E-score. AACTGCAC was tested, and the binding signal was -0.0163 E-score. Work on ACCTGTCC yielded a binding signal of -0.123 E-score. TCTTGGAA showed a binding signal of -0.0846 E-score. AGGCGAAA showed a binding signal of -0.157 E-score. In the case of ATCGGTTG, the binding signal is reported as -0.113 E-score. Work on CGATGGCA yielded a binding signal of -0.132 E-score. Sequence CGCTTGTC has a binding signal of -0.202 E-score. AGTATGGG was tested, and the binding signal was 0.0865 E-score. GTTTCATA gave a binding signal of -0.137 E-score. Work on TCCAAGAA yielded a binding signal of -0.241 E-score. Work on AATTCATA yielded a binding signal of -0.207 E-score. Sequence TCTTAGAA has a binding signal of -0.201 E-score. AAATTAGT was tested, and the binding signal was -0.0802 E-score. Sequence CAATTTCC has a binding signal of -0.0459 E-score. For CGCGGACC, the binding signal was -0.0694 E-score. CGAATACG showed a binding signal of 0.0509 E-score. Sequence CTGCTTTA has a binding signal of -0.163 E-score. For CCAGGTAC, the binding signal was 0.201 E-score. CGTCAGTC showed a binding signal of -0.149 E-score. GTTGACTA gave a binding signal of -0.0467 E-score. With GCATTTAA the binding signal was -0.251 E-score. In the case of CTCATTCC, the binding signal is reported as 0.0882 E-score. ATCCTGGG was tested, and the binding signal was 0.0475 E-score. With AAGTGTCT the binding signal was 0.346 E-score. Work on CGCGAGCC yielded a binding signal of -0.124 E-score. In the case of GCAGAAGA, the binding signal is reported as -0.227 E-score. Work on GCCACCTA yielded a binding signal of -0.0448 E-score. CGATTAGA was tested, and the binding signal was -0.0537 E-score. For AGGACTCG, the binding signal was -0.0146 E-score. Sequence GGAGTTGA has a binding signal of -0.0176 E-score. In the case of AGTGGAAT, the binding signal is reported as -0.145 E-score. In the case of AAAAAAGT, the binding signal is reported as 0.0167 E-score. In the case of CTATCAGC, the binding signal is reported as 0.0313 E-score. ATCCAACC was tested, and the binding signal was -0.0171 E-score. With CGAGTCTA the binding signal was -0.0154 E-score. AGTGATCC was tested, and the binding signal was 0.184 E-score. For GACTAAGC, the binding signal was -0.288 E-score. Work on CGATTGCA yielded a binding signal of -0.0512 E-score. CCACATAG gave a binding signal of -0.131 E-score. GCTGCCTA showed a binding signal of -0.127 E-score. For GCCGCGCA, the binding signal was -0.225 E-score. ATCAATGA was tested, and the binding signal was -0.0561 E-score. Sequence CATTTCAC has a binding signal of -0.214 E-score. In the case of ACTTAGTA, the binding signal is reported as -0.0409 E-score. ACGTCCTC was tested, and the binding signal was -0.0219 E-score. In the case of AGTACATC, the binding signal is reported as 0.0196 E-score. For GCACTCAC, the binding signal was 0.0395 E-score. ATAGGCCA showed a binding signal of -0.229 E-score. Sequence TCAGACGA has a binding signal of -0.14 E-score. With AGAAACGA the binding signal was -0.0723 E-score. In the case of AAGTCCTC, the binding signal is reported as -0.304 E-score. For AAAGGGTA, the binding signal was 0.0379 E-score. For AATTACAG, the binding signal was -0.158 E-score.
